Measured values reported in publication PMC4336329 (PLoS ONE, 2015).
In all, about 310,000 compounds went through this assay and about 2,200 (0.71%) showed an effect of 50% or more. The effect is printed as a negative number. The list shows a part of the results.

Biological target: human ether-à-go-go-related gene (hERG) potassium channel (human, UniProt Q12809)
Assay: primary screen, population patch clamp on CHO cells stably expressing hERG

human ether-à-go-go-related gene (hERG) potassium channel, sequence (Q12809 whole entry, looked up): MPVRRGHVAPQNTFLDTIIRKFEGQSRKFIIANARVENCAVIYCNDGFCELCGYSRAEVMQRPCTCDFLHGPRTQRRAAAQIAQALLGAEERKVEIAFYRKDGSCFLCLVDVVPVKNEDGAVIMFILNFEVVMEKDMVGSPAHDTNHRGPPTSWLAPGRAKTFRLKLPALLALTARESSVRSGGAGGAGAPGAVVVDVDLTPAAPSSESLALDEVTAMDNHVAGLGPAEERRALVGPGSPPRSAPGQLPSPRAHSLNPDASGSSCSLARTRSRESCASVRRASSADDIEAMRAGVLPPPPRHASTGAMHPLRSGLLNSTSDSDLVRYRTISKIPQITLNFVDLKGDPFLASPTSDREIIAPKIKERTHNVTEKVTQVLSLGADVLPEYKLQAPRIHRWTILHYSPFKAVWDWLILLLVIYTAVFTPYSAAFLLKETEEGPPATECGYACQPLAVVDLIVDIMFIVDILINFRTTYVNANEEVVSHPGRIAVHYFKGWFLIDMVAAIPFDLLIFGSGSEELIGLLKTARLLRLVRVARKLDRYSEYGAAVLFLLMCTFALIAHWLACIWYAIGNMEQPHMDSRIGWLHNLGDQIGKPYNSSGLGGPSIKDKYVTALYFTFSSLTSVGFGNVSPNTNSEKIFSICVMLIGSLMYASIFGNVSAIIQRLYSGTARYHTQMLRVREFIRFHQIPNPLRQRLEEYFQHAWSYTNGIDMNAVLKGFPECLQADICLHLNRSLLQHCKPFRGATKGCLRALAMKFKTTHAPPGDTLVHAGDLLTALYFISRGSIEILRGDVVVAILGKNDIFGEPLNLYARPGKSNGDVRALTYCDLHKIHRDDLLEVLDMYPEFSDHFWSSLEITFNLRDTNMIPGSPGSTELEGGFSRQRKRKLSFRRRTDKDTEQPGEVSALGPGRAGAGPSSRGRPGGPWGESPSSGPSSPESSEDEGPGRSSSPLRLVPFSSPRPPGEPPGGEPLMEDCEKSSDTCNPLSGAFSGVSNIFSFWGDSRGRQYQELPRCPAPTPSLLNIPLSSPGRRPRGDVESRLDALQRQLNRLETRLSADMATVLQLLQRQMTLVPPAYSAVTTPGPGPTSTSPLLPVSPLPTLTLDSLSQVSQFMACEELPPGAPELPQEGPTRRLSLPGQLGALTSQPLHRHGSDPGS

In order of falling “hERG current change (%, negative = inhibition) at 1uM” value:
1. COc1ccc(N2CC(NS(=O)(=O)c3cccnc3)CC2=O)cc1OC (stereo not drawn)  28.9%
2. Cn1nc(-c2ccccc2)c(C(=O)NCC(=O)O)c1Cl  16.6%
3. CCN(CC)C(=O)COC(=O)c1ccc(C)c(NC(=O)c2ccco2)c1  15.9%
4. CCCCN=C(Nc1ccc(Cl)cc1)c1cccnc1  15.7%
5. O=C(O)CCn1cc(C=C2C(=O)NC(=S)NC2=O)c(-c2ccccc2)n1  15.5%
6. O=C(O)CCCN1C(=O)C2C3c4ccccc4C(c4ccccc43)[C@@H]2C1=O (stereo partly drawn)  14.1%
7. CCN(CC)S(=O)(=O)c1ccc(N2CCOCC2)c(NCC(=O)Nc2ccc(F)cc2)c1  13.7%
8. CC(Cc1ccccc1)C(=O)NCCO (stereo not drawn)  13.5%
9. Cn1c(=O)[nH]c(=O)c2c1nc(Br)n2CC(O)c1ccccc1 (stereo not drawn)  12.6%
10. COc1ccc(Cc2nc3ccccc3n2CC(=O)N/N=C/c2ccccc2)cc1OC  12.6%
11. CSCCC(NS(=O)(=O)c1ccc(C)cc1)C(=O)N1CCCC1 (stereo not drawn)  12.5%
12. CCCSc1nnc(CNC(=O)C23CC4CC(CC(C4)C2)C3)n1Cc1ccccc1  12.2%
13. O=C(NC1CCCCCC1)C1CCN(S(=O)(=O)N2CCC3(CC2)OCCO3)CC1  11.9%
14. NC(=O)c1ccsc1NC(=O)c1ccc2c(c1)CCCC2  11.7%
15. O=S(=O)(/C=C/c1ccccc1)N1CCN(Cc2ccccc2)CC1  11.6%
16. O=S(=O)(Nc1nnc(C(F)(F)F)s1)c1ccc(Cl)cc1  10.5%
17. COc1ccc2oc(=O)c(C(=O)N3CCc4ccccc43)cc2c1  10.1%
18. N/C(=N\[N+](=O)[O-])N1CCN(C(=O)c2ccccn2)CC1  10%
19. Cc1ccc(CCC(=O)Nc2ccc(C#N)cc2)o1  9.46%
20. COc1ccc(NC(=O)c2cc(S(=O)(=O)N3CCCC3)cn2C)cc1Cl  9.44%
21. Cc1cc(C)c(C)c(S(=O)(=O)NCC(=O)N2CCCC2)c1C  9%
22. Cc1ccccc1NC(=O)N1CCN(c2ncccn2)CC1  8.62%
23. CCCCC(=O)N(CCC)CCC  8.41%
24. CC1(C)OC(=O)C(=Cc2ccc(-c3ccc(Cl)c(C(=O)O)c3)o2)C(=O)O1  8.14%
25. c1ccc(C(c2ccccc2)c2nc(-c3cccnc3)no2)cc1  7.91%
26. Cc1cccc(NC(=O)CSCC(=O)N2CCN(Cc3ccc4c(c3)OCO4)CC2)c1  7.37%
27. COC(=O)CSc1nnc(C)n1-c1cccc(OC)c1  5.92%
28. COc1ccc(Cc2nc3ccc(C(=O)NCCc4cccc(C)n4)cc3o2)cc1  5.65%
29. O=C(Cn1cc(C(=O)COc2ccccc2)c2ccccc21)NCc1ccco1  5.03%
30. O=C(NCc1ccccc1)C(c1ccccc1)N(C(=O)c1csnn1)c1ccccc1 (stereo not drawn)  3.01%
31. CCOC(=O)c1nsnc1NCCCl  2.67%
32. COc1ccc(-c2cc(=NCC(=O)O)c3ccccc3o2)cc1.[O-][Cl+3]([O-])([O-])O  2.51%
33. O=C(c1ccc2c(c1)N(Cc1ccccc1)C(=O)CS2)N1CCOCC1  1.45%
34. COC(=O)c1ccccc1NC(=O)Oc1ccc(C(C)C)cc1  0.839%
35. CCCC1OC23CCCCC2C(C#N)(C#N)C1(C#N)C(=N)O3 (stereo not drawn)  0.185%
36. O=C(Nc1ccc(F)cc1)c1cccc(N2C(=O)C3C4C=CC(C4)C3C2=O)c1 (stereo not drawn)  -0.156%
37. Cc1ccccc1NC(=O)/C(=C\c1cccs1)NC(=O)c1ccccc1  -0.47%
38. Cc1ccc(Oc2ccc(S(=O)(=O)N3CCOCC3)cc2C(N)=O)c(-n2nc3ccccc3n2)c1  -1.4%
39. Cc1ccc(S(=O)(=O)c2cnc(-c3ccccc3)nc2N2CCCCC2)cc1  -3.59%
40. COc1cc2c(c3oc(-c4ccccc4)cc(=O)c13)C=CC(C)(C)O2  -5.53%
41. CCn1cc(CNC(=O)/C=C/c2ccc([N+](=O)[O-])cc2)c(C)n1  -7.18%
42. O=S(=O)(c1ccc(OCC(O)CN2CCC(Cc3ccccc3)CC2)cc1)N1CCOCC1 (stereo not drawn)  -10.3%
43. COCC1CCCCN1Cc1cn[nH]c1-c1ccc2cc(OC)ccc2c1 (stereo not drawn)  -43.9%
44. Cc1c(C(O)CN2CCN(Cc3ccc4c(c3)OCO4)CC2)c2ccccc2n1C (stereo not drawn)  -46%
45. CN1C(C(=O)NCc2ccc(OC(F)(F)F)cc2)CC2Cn3c(nc4ccccc43)C21 (stereo not drawn)  -74.9%
